Assay results: the RNAGym collection of RNA variant scans (doi:10.1093/nar/gkz1192)
The source gives no read counts; variants with many changes may rest on few reads.

B1: CPEB3 Ribozyme (parent)
chain: UAACAGGGGGCCACAGCAGAAGCGUUCACGUCGCAGCCCCUGUCAGAUUCUGGUGAAUCUGCGAAUUCUGCUGUAUAUCUC

Variants of: B1
Test: self-cleavage, relative activity (ratio to wild type); higher = more cleavage; in vitro, sequencing
Procedure, shortened: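 After error-prone PCR and barcoding, CPEB3 ribozyme mutant libraries were transcribed with T7 RNA polymerase at 37°C for 5 hours, then given 15 min with DNase I before an EDTA stop, and they cleaved during both steps. Reverse transcription with template switching preceded Illumina sequencing. Relative activity divides a variant's cleaved/total read fraction by the unmutated ribozyme's. At least 5 reads were required per variant, and three batches were averaged.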

| Variant | self-cleavage |
| --- | --- |
| UAACAGUGGGCCACAGCAGAAGCGUUCACGACGCAGCCCCUGUCAGACUCUGGUGAAUCUGCGGAUUCUGCUGUAUAUCUC | 0.06 |
| UAACAGUGGGCCACAGCAGAAGCGUUCACGCCGCAGCCCCUGUCAGGCUCUGGUGAAUCUGCGAAUUCUGCUGCAUAUCUC | 0.18 |
| UAACAGUGGGCCACAGCAGAAGCGUUCACGCCGCAGCCCCUUUCAGACUCUGGUGAAUCUGCGAAUUCUGCUGUAUAUCUC | 0.06 |
| UAACAGUGGGCCACAGCAGAAGCGUUCACGCCGCAGCCCCUGGCAGAUUCUGGUGAAUCUGCAAAUCCUGCUGUAUAUCUC | 0.04 |
| UAACAGUGGGCCACAGCAGAAGCGUUCACGCCGCAGCCCCUGUCAGAUUCUGGUGAAUCUGCGAAUUCUGCUGGAUACCUC | 0.21 |
| UAACAGUGGGCCACAGCAGAAGCGUUCACGUCGCAGCCCCCGUCAGAUUCCGGUGGAUCUGCGAAUUCUGUUGUAUAUCUC | 0.1 |
| UAACAGUGGGCCACAGCAGAAGCGUUCACGUCGCAGCCCCUGCCAGAUUCCGGUGAAUCUGCGAAUUCUGCUGUAUAUCCC | 0.22 |
| UAACAGUGGGCCACAGCAGAAGCGUUCACGUCGCAGCCCCUGUCAGAUACUGGUGAAUCUGCGGAUUCUGCCGUAUAUCUC | 0.08 |
| UAACAGUGGGCCACAGCAGAAGCGUUCACGUCGCAGCCCCUGUCAGAUCCUGGCGAAUCUGCGAAUUCUGCUGUAUAUCUC | 0.13 |
| UAACAGUGGGCCACAGCAGAAGCGUUCACGUCGCAGCCCCUGUCAGAUUCCGGUGAAUCUGCGAAUUCUGCCGUAUACCUC | 0.27 |
| UAACAGUGGGCCACAGCAGAAGCGUUCACGUCGCAGCCCCUGUCAGAUUCUGGAGAUUCUGCGAAUUCUGCUCUAUAUCUC | 0.48 |
| UAACAGGAGGCCCCAGCAGAAGCGUUCACGUCGCAGCCCCUGUCAGAUUCUGGUGAAACUGCGAAUUCUGCUGUAUAUCUC | 0.07 |
| UAACAGGAGGCCGCAGCAGAAGCGUUCACGUCGCAGCCCCUGUCGGAUUCUGGAGAAUCUGCGAAUUCUGCUGUAUAUCUC | 0.08 |
| UAACAGGAGGCCGCAGCAGAAGCGUUCACGUCCCAGACCCUGUCAGAUUCUGGUGAAUCUGCGAAUUCUGCUGUAUAUCUC | 0.07 |
| UAACAGGAGGCCGCAGCAGAAGCGAUCACGUCGCAGCCCCUGUCAGAUUCUGGUGAAUCUGCGAAUUCUGCUGUAUACCUC | 0.05 |
| UAACAGGAGGCCGCAGCAGAAGCGUUCACGUCGCAGCCCCAGUCAGAUUCUGGUGAAUCUGCGAAUUCUGCUGUAUAUCUC | 0.25 |
| UAACAGGAGGCCUCCGCAGAAGCGUUCACGUCACAGCCCCUGUCAGAUACUGGUGAACCUGCGAAUUCUGCUGUAUACCUC | 0.03 |

| Variant | self-cleavage |
| --- | --- |
| UAACAGGAGGCCUCAGCAGUAGCGUUCACGUCGCAGCCCCUGUCAAAUCCUGGUGAAUCUGCGAAUUCUGCUGUAUAUCUC | 0.06 |
| UAACAGGAGGCCUCAGCAGAAGCGUUCACGUCGCAGCCCCUGUCAGGUUCUGGUGGGUCUGCGAAUUCUGCCGUAUAUCUC | 0.19 |
| UAACAGGAGGCCUCAGCAGAAGCGUUCACGUUGCAGCCCCUGUCAGAUUCUGGUGAAUCUGCGAAUUCUGCUGCAUAUCAC | 0.08 |
| UAACAGGAGGCCUCAGCAGAAGCGUUCACGGCGCAGCCCCUGUCAGAUUCUGGUGAAUCUGCGAAUUCUGCUGUAUAUCUC | 0.08 |
| UAACAGGAGGCCUCAGCAGAAGCGUUCACGUCGCAGCCCCUGUCAGAUUCUGGUGAAUCUGCGAAUUCUGCCGUAUAUCUC | 0.27 |
| UAACAGGAGGCCACGGCAGAGGUGUUCACGUCGCAGCCCCUGUCAGAUUCUGGUGAAUCCGCGAAUUCUGCUGUAUAUCUC | 0.04 |
| UAACAGGAGGCCACGGCAGAGGCGUUCACGUCGCAGCCCCUGUCAGAUUCUGGUGAAUCUGCGAAUUCCGCGGUAUAUCUC | 0.05 |
| UAACAGGAGGCCACGGCAGAAGCGUUCACGUCGCAGCCCCUGUCAGAUUCUGGUGAAUCUGCGUAUUCUGCUGUAUAUCUC | 0.38 |
| UAACAGGAGGCCACGGCAGAAGCGUUCACGUCGCAGCCCCUGUCAGAUUCUGGUGAAUCUGCGAAUUCUGCUGUAUUUCUC | 0.06 |
| UAACAGGAGGCCACGGCAGAAGCGAUCACGUCGCAGCCCCCGUCAUAUUCUGGUGAAUCUGCGAACUCUGCUGUAUAUCUC | 0.01 |
| UAACAGGAGGCCACGGCAGAAGCGUUCACGCCGCGGCCCCUGCCAGAUUCUGGUGAAUCUGCGAAUUCUGCUGUAUAUCUC | 0.06 |
| UAACAGGAGGCCACGGCAGAAGCGUUCACGUCGCAGCCCCUGUCAGAUUCUGGUGAAUCUGCGAAUUCUGCCGUAUAUCCC | 0.11 |
| UAACAGGAGGCCACUGCAGAAGCGUUCACGUCGCAGCCCCUGUCAGAUUCUGGUGAAUCUGCGGAUUCUGCUGUAUAUCUC | 0.09 |
| UAACAGGAGGCCACUGCAGAAGCGUUCACGUCGCAGCCCCUGUCAGAUUCUGGUGAAUCUGUGGAUUCUGCUGCAUAUCUC | 0.05 |
| UAACAGGAGGCCACUGCAGAAGCGUUCACGUCGCAGCCCCUGCCAGAUUCAGGUGAAUCUGCGAAUUCUGCCGUAUAUCUC | 0.06 |
| UAACAGGAGGCCACAGCCGAAGCGUUCACGUAGUAGCCCCUGUCAGAUUCUGGUGGAUCUGCGAAUUCUGCCGUAUAUCAC | 0.04 |
| UAACAGGAGGCCACAGCGGAAGCGUUCACGUCGCAGCCCCUACCAGAUUCUGGUGAAUCUGCGAAUUCUGCUGUAUAUCUC | 0.07 |
